Results are given in words; binding and its absence hold for the method and conditions named. Binding seen in cells or lysates may run through a third protein. Some results given as binding are weak or reduced against the parent protein; the word gives no strength. Tags and fused reporters may be left off the sequences shown.
Target: T1, Flag-DAP5 N86A (human) (UniProt P78344)
T1 sequence: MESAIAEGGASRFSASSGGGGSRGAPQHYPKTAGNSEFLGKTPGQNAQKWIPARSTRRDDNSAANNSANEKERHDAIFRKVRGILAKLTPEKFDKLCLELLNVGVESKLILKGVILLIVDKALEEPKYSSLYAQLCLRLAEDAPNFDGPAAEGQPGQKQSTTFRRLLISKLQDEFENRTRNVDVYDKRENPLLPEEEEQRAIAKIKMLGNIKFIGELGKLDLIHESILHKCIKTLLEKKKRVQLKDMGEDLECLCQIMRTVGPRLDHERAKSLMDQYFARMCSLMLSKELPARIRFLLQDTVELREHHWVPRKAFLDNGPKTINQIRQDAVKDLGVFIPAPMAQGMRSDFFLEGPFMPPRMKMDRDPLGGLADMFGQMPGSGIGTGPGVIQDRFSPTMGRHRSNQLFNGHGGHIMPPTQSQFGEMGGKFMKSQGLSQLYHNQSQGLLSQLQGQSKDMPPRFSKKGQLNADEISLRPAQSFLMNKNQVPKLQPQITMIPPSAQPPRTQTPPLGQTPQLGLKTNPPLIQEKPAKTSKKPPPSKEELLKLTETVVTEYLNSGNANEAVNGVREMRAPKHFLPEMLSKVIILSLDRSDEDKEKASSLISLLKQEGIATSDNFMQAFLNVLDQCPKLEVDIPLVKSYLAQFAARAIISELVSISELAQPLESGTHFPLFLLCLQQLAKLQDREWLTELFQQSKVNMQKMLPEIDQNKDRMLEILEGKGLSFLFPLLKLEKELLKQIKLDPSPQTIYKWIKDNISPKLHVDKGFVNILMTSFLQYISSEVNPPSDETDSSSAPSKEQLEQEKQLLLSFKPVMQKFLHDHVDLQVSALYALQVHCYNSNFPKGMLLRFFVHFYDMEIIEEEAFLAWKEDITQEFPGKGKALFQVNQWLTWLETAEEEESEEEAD
Assay: co-IP; HEK293T transfected 24 h with Flag-tagged DAP5 constructs; lysis in buffer B (20 mM HEPES-KOH pH 7.6, 100 mM KCl, 0.5 mM EDTA, 0.4% NP-40, 20% glycerol); anti-Flag-conjugated beads, elution with Flag peptide; western blot of endogenous factors

Chains of the proteins cited; added tags and fusions are not shown.
UniProt P60842: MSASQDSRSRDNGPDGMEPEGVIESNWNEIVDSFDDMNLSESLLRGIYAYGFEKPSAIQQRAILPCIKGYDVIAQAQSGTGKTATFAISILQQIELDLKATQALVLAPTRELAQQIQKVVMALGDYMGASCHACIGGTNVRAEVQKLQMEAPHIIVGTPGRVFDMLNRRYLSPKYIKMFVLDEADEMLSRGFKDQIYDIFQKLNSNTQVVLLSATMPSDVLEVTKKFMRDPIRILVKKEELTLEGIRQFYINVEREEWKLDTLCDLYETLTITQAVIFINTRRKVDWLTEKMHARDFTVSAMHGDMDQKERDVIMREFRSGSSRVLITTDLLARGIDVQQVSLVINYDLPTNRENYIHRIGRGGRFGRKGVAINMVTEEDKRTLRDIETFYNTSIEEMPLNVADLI
UniProt P55884: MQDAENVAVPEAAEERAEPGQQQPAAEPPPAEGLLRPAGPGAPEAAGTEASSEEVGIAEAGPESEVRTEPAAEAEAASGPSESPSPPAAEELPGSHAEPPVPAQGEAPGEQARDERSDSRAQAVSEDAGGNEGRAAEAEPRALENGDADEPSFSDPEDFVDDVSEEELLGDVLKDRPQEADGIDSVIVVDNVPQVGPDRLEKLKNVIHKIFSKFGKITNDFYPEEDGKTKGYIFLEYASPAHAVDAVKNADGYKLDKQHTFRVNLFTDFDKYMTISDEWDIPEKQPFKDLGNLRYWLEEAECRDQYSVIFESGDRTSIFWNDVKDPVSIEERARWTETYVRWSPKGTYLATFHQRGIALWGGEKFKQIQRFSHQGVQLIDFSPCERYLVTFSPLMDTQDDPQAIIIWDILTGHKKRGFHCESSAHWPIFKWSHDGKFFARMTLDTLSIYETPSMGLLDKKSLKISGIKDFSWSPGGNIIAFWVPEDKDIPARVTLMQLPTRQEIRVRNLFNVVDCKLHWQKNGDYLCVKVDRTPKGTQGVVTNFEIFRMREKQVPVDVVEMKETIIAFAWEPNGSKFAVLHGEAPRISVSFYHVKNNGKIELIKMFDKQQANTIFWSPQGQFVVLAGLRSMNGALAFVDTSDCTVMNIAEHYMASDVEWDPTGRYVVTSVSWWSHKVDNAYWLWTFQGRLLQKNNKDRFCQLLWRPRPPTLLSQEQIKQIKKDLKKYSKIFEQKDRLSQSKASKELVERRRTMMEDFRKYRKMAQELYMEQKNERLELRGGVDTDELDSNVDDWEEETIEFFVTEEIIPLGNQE

Substance | binding
eIF4AI (from UniProt P60842 1-406) | no binding
eIF3S9 (from UniProt P55884 1-814) | binds

— paper PMC4402527
